Results from patent US8415154B2, “Compositions and methods for producing adaptive regulatory T cells” (Trustees of Dartmouth College, priority 2007, dated 2013).
Read-outs that look alike come from different tables or passages of the source.

How the values were obtained:
[1] = test system: naïve CD4+ OTII TCR Foxp3GFP− T cells; assay: DC-induced Foxp3 expression in naïve CD4+ OTII T cells; type: cell-based, mouse; details: non-toxic concentrations, OVA peptide and TGFβ, 5 days
Protocol: The role of retinoic acid and the efficacy of different DC subsets in the conversion of effector T cells to Foxp3+ cells were also evaluated. To determine the influence of DC subsets on aT^reg differentiation, purified CD8α^+ or CD8α^− CD11c^high DCs were tested for their capacity to induce Foxp3 expression in naïve CD4^+ OTII TCR Foxp3GFP^− T cells. […] To compare the ability for each DC subset to induce clonal expansion, the number of OTII cells was quantified at the end of the assay. Although CD8α^− DCs induced modestly better proliferation of total CD4^+ T cells, the number of induced Foxp3^+ cells was still greater with the CD8α^+ DC culture. To evaluate if retinoic acid was involved in the DC-induced conversion, the pan RAR inhibitor, LE540 was used at non-toxic concentrations. Induction of Foxp3 was inhibited by this intervention. […] Thus, it is contemplated that peripheral (not only mucosal DCs) induces T^eff->T^reg differentiation in a retinoic acid-dependent manner.

CD4+Foxp3− T cells = assay: TGFβ1-driven conversion of CD4+Foxp3− T cells to Foxp3+ (Foxp3/GFP) in vitro; type: cell-based, mouse
α4β7 and CCR9 = details: cited from earlier work
CD4+CD25− cells [2] = assay: CFSE dye dilution T cell proliferation; type: cell-based, mouse; details: 1 nM retinoic acid
From the text: To visualize whether this occurs, CFSE-labeled CD4+CD25− cells were activated in the presence and absence of retinoic acid to observe TGFβ1-driven conversion. One nM of retinoic acid was used in the cultures as this concentration has been reported to drive T cell differentiation without inhibiting proliferation, and this concentration also enhances Foxp3 (FIG. 2). […] In concordance with its known T-cell suppressive character, the addition of TGFβ to cultures slowed T cell division, and yielded a Foxp3+ population. The addition of retinoic acid to the TGFβ1 and IL-2 cultures generated a substantially greater number of Foxp3+ cells throughout all peaks of cell division, with no impediment in cell division observed. […] Further supporting this finding is that retinoic acid enhances TGFβ1-mediated Foxp3 expression in the absence of co-stimulation and just the presence of an agonistic TCR signal (FIG. 4B).

IL9 = IL9 production by T cells stimulated with αCD3, IL2 and TGFβ; type: cell-based, mouse
CD4+CD25− cells [3] = details: cited from earlier work
Foxp3 = assay: RAR/RXR selective agonists tested for induction of Foxp3+ T cells; type: cell-based, mouse; details: RXRα agonist
Protocol: To identify the RAR involved in retinoic acid-induced differentiation, RAR selective agonists were tested for their ability to induce Foxp3^+ T cells.
Given the data herein, retinoid receptor-specific agonists and antagonists such as tamibarotene, AM580 (RARα agonists), AC55649 (RARβ agonist), CD437 (RARγ agonist), a mixed RAR-RXR agonist (bexarotene with RXR>RAR activity), pure RXR agonists (NRX4204 and LGD-100268), a pan-RAR antagonists (LE540, LGD-100815) and a proapoptotic retinioid (fenretinide) are used as molecular pharmacologic tools to mechanistically probe which of the classical (RARs) or non-classical (RXRs) retinoid receptors confers retinoid response in the maturation of T^eff->T^reg lymphocytes, both in vivo and in vitro. As indicated by results obtained herein, the in vivo effects of regulating T^eff->T^reg in mice is determined using these agents as pharmacological tools. Briefly, the RAR and RXR agonists (used in the sub- to μM range to retain specificity) are tested with sort-purified, Foxp3^− when cultured with TGFβ, IL2 and αCD3. Expression of Foxp3, CCR9, and α4β37 is tested, as is their suppressor cell activities, in standard suppressor assays. See, e.g., Gondek, et al. (2005) J. Immunol. 174:1783-6. This is to assure that a single agonist can induce all of the cellular responses associated with retinoic acid. […]

Question: With `CN1c2cc3c(cc2N=C(c2ccc(C(=O)O)cc2)c2ccc4ccccc4c21)C(C)(C)CCC3(C)C` [LE540] as the molecule, how does the “induction of Foxp3 by DCs” value [1] read?
Answer: Its value is “inhibited”.

Question: For `C=C1/C(=C\C=C2/CCC[C@]3(C)[C@@H]([C@H](C)CCCC(C)(C)O)CC[C@@H]23)C[C@@H](O)C[C@@H]1O` [1,25D], which “Foxp3 expression induced with αCD3 and TGFβ” value (CD4+Foxp3− T cells; broad dose range) is on record?
Answer: The value was “nor does it induce Foxp3 expression”.

Question: What about the “effect on retinoic acid-induced Foxp3 expression” value (CD4+Foxp3− T cells; broad dose range) of the same molecule?
Answer: Its value is “does not interfere with retinoic acid-induced Foxp3 expression”.

Question: What about the “retinoic acid-induced expression of α4β7 and CCR9” value (α4β7 and CCR9) of the same molecule?
Answer: The value was “inhibits the retinoic acid-induced expression of α4β7 and CCR9”.

Question: Which results are given for `CC1=C(/C=C/C(C)=C/C=C/C(C)=C/C(=O)O)C(C)(C)CCC1` [retinoic acid, all-trans retinoic acid]?
Answer: conversion with titrated TGFβ1 (CD4+Foxp3− T cells; TGFβ1 20, 10, 5, 1 and 0 ng/ml, constant retinoic acid and IL-2): enhanced conversion throughout the titration; T^reg expressing CD103 (CD4+Foxp3− T cells; retinoic acid-induced T^reg): 72%; conversion by retinoic acid by itself (CD4+Foxp3− T cells; without TGFβ1, IL-2 constant): did not induce conversion; T cell proliferation (CD4+CD25− cells [2]): does not suppress T cell proliferation; production of IL9 (IL9): dose-dependent decrease; T cell proliferation (CD4+CD25− cells [3]; doses below 5 nM): do not inhibit proliferation; T cell proliferation (CD4+CD25− cells [3]; high doses, 30-100 nM): suppress T cell proliferation

Question: Which “induction of Foxp3” value (Foxp3) does the source give for `CC(/C=C/[C@@H]1C[C@]1(C)c1ccc2c(c1)C(C)(C)CCC2(C)C)=C\C(=O)O` [compound 4204] here?
Answer: Its value is “RXRα is involved with the induction of Foxp3”.
